The values that follow come from PubChem BioAssay (NCI).

Molecules are shown by their SMILES.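 Tested at 5 concentrations; 48 h exposure; 96-well plates; endpoints linearly interpolated, else capped at highest concentration. The concentration for 50% growth inhibition is given as GI50. Definition used: TGI = concentration required for complete inhibition of growth.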

The subject of this test is NCI-H322M lung. Description: NCI tumour cell line growth inhibition, 48 h.
`CC(C)OC(=O)c1cccnc1/C=N/O` displayed a TGI above 100 µM.

The compound `CP(=O)(O)C(N)c1ccccc1` (stereo not drawn) registered a TGI above 100 µM.

On to `O=C1c2ccccc2C(=O)c2c(NCC3CO3)cccc21` (stereo not drawn), for which the TGI is above 100 µM.

In turn, `CC(=O)Nc1ccc(Cc2ccc3[nH]c(=O)cc(C)c3c2)cc1` showed a TGI above 100 µM.

Consider `C=CNC(=S)n1nc(-c2ccccc2NC(=O)C(F)(F)F)c(=O)n(C(=S)NC=C)c1=S`, for which the TGI was above 100 µM.

Turning to `CS(=O)(=O)c1ccc(-c2cnc(NCc3ccco3)n3cnnc23)cc1`, the GI50 was above 100 µM and the TGI was above 100 µM.

Compound `Cc1cc(N(CCC#N)CCC#N)ccc1CC1N=C(c2ccccc2)OC1=O` (stereo not drawn) came in with a TGI above 100 µM.
